Measurements from the supplement of paper PMC8728848.
The list shows a part of the results.

What was measured:
Assay in all cases: glycan array binding signal (z-score within array); higher = stronger binding
Settings in all cases: glycan notation: IUPAC condensed, linker removed
[1] = biological target: Fuc(a1-2)[GalNAc(b1-3)]Gal
How it was run: (§1)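 The Consortium for Functional Glycomics database supplied 3228 glycan arrays, of which those lacking an available protein sequence were dropped. The binding signal, a within-array Z-score, was averaged across arrays of the same protein sequence and across linkers. Negative scores can be read as non-binding.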

Fuc(a1-3)GlcNAc = biological target: Fuc(a1-3)GlcNAc
How it was run: as §1

[2] = biological target: Fuc(a1-3)[Gal(b1-4)]Glc6S
How it was run: as §1

[3] = biological target: Fuc(a1-3)[Gal(b1-4)]GlcNAc
How it was run: as §1

[4] = biological target: Fuc(a1-3)[Gal(b1-4)]GlcNAc(b1-2)Man
How it was run: as §1

[5] = biological target: Fuc(a1-3)[Gal(b1-4)]GlcNAc(b1-2)Man(a1-3)[Fuc(a1-3)[Gal(b1-4)]GlcNAc(b1-2)Man(a1-6)]Man(b1-4)GlcNAc(b1-4)GlcNAc
How it was run: as §1

[6] = biological target: Fuc(a1-3)[Gal(b1-4)]GlcNAc(b1-2)Man(a1-3)[Fuc(a1-3)[Gal(b1-4)]GlcNAc(b1-2)Man(a1-6)]Man(b1-4)GlcNAc(b1-4)[Fuc(a1-6)]GlcNAc
How it was run: as §1

[7] = biological target: Fuc(a1-3)[Gal(b1-4)]GlcNAc(b1-3)Gal(b1-3)[Fuc(a1-4)]GlcNAc
How it was run: as §1

[8] = biological target: Fuc(a1-3)[Gal(b1-4)]GlcNAc(b1-3)Gal(b1-4)[Fuc(a1-3)]GlcNAc
How it was run: as §1

[9] = biological target: Fuc(a1-3)[Gal(b1-4)]GlcNAc(b1-3)Gal(b1-4)[Fuc(a1-3)]GlcNAc(b1-3)Gal(b1-4)[Fuc(a1-3)]GlcNAc
How it was run: as §1

[10] = biological target: Fuc(a1-3)[Gal(b1-4)]GlcNAc(b1-3)GalNAc
How it was run: as §1

[11] = biological target: Fuc(a1-3)[Gal(b1-4)]GlcNAc(b1-6)GalNAc
How it was run: as §1

[12] = biological target: Fuc(a1-3)[Gal(b1-4)]GlcNAc(b1-6)[Gal(b1-3)GlcNAc(b1-3)]Gal(b1-4)Glc
How it was run: as §1

[13] = biological target: Fuc(a1-3)[Gal(b1-4)]GlcNAc6S
How it was run: as §1

[14] = biological target: Fuc(a1-3)[Gal3S(b1-4)]Glc
How it was run: as §1

[15] = biological target: Fuc(a1-3)[Gal3S(b1-4)]GlcNAc
How it was run: as §1

[16] = biological target: Fuc(a1-3)[Gal3S(b1-4)]GlcNAc6S
How it was run: as §1

[17] = biological target: Fuc(a1-3)[GalNAc(b1-4)]GlcNAc
How it was run: as §1

[18] = biological target: Fuc(a1-3)[GalNAc(b1-4)]GlcNAc6S
How it was run: as §1

Fuc(a1-4)GlcNAc = biological target: Fuc(a1-4)GlcNAc
How it was run: as §1

Fuc(b1-3)GlcNAc = biological target: Fuc(b1-3)GlcNAc
How it was run: as §1

Gal(a1-2)Gal = biological target: Gal(a1-2)Gal
How it was run: as §1

Gal(a1-3)Gal = biological target: Gal(a1-3)Gal
How it was run: as §1

Gal(a1-3)Gal(b1-3)GlcNAc = biological target: Gal(a1-3)Gal(b1-3)GlcNAc
How it was run: as §1

[19] = biological target: Gal(a1-3)Gal(b1-3)GlcNAc(b1-2)Man
How it was run: as §1

[20] = biological target: Gal(a1-3)Gal(b1-3)GlcNAc(b1-2)Man(a1-3)[Gal(a1-3)Gal(b1-3)GlcNAc(b1-2)Man(a1-6)]Man(b1-4)GlcNAc(b1-4)GlcNAc
How it was run: as §1

[21] = biological target: Gal(a1-3)Gal(b1-3)GlcNAc(b1-3)GalNAc
How it was run: as §1

[22] = biological target: Gal(a1-3)Gal(b1-3)GlcNAc(b1-6)GalNAc
How it was run: as §1

[23] = biological target: Gal(a1-3)Gal(b1-3)[Fuc(a1-4)]GlcNAc(b1-2)Man(a1-3)[Gal(a1-3)Gal(b1-3)[Fuc(a1-4)]GlcNAc(b1-2)Man(a1-6)]Man(b1-4)GlcNAc(b1-4)GlcNAc
How it was run: as §1

Gal(a1-3)Gal(b1-4)Glc = biological target: Gal(a1-3)Gal(b1-4)Glc
How it was run: as §1

Gal(a1-3)Gal(b1-4)GlcNAc = biological target: Gal(a1-3)Gal(b1-4)GlcNAc
How it was run: as §1

[24] = biological target: Gal(a1-3)Gal(b1-4)GlcNAc(b1-2)Man
How it was run: as §1

[25] = biological target: Gal(a1-3)Gal(b1-4)GlcNAc(b1-2)Man(a1-3)[Gal(a1-3)Gal(b1-4)GlcNAc(b1-2)Man(a1-6)]Man(b1-4)GlcNAc(b1-4)GlcNAc
How it was run: as §1

[26] = biological target: Gal(a1-3)Gal(b1-4)GlcNAc(b1-3)GalNAc
How it was run: as §1

[27] = biological target: Gal(a1-3)Gal(b1-4)GlcNAc(b1-6)GalNAc
How it was run: as §1

[28] = biological target: Gal(a1-3)Gal(b1-4)[Fuc(a1-3)]GlcNAc
How it was run: as §1

[29] = biological target: Gal(a1-3)Gal(b1-4)[Fuc(a1-3)]GlcNAc(b1-2)Man(a1-3)[Gal(a1-3)Gal(b1-4)[Fuc(a1-3)]GlcNAc(b1-2)Man(a1-6)]Man(b1-4)GlcNAc(b1-4)GlcNAc
How it was run: as §1

B1: PkBDPgamma (Plasmodium knowlesi) (protein)
chain: SAINQIFLQNNVMDKCNDKRKRGERDWDCPTEKDVCIPDRRYQLCMMEITNLVDTDTHFHSDIIFRKSYSRRRLIYDVGGRGDLLLKKYNNVYSEDLCKDIKWSLQDFGDIIMGTDMEGIGYSLVVQNNLRSIFGTGTSAELDRKKWWNDHKKDIWKAMILSVKEKNRYSAWNCKEDVQIKVEPQIYRWIREWGRDYMSEFREQRRKLNEKCEDKLYYSTMLICTLPPCNNACKSYDEWITGKKKQWDVLSTKFSSVKKAQKIETENIARAYDILKQELNGFNEVTFENEINKRDKLYNYFCVCIVQEARKNTQENVKNVGSGVESKAPSSNPINEAVKSSSGEGKVQEDSAHRSVNEGEGKSSTNEADPGSQPGAAASGGGSGGGTGGGVDLAPQMLRELQETNAALQDVRELLRQQVKEITFLKNTVMECDACGGPLDRNLPPLAPLGPTGGWSHPQFEK
- glycan array binding signal (z-score) [1]: 0.501
- glycan array binding signal (z-score) (Fuc(a1-3)GlcNAc): 0.556
- glycan array binding signal (z-score) [2]: 0.195
- glycan array binding signal (z-score) [3]: 0.125
- glycan array binding signal (z-score) [4]: -0.376
- glycan array binding signal (z-score) [5]: -0.703
- glycan array binding signal (z-score) [6]: -0.248
- glycan array binding signal (z-score) [7]: -0.519
- glycan array binding signal (z-score) [8]: -0.046
- glycan array binding signal (z-score) [9]: -0.29
- glycan array binding signal (z-score) [10]: 0.185
- glycan array binding signal (z-score) [11]: -0.182
- glycan array binding signal (z-score) [12]: -0.449
- glycan array binding signal (z-score) [13]: -0.407
- glycan array binding signal (z-score) [14]: 0.269
- glycan array binding signal (z-score) [15]: -0.608
- glycan array binding signal (z-score) [16]: -0.001
- glycan array binding signal (z-score) [17]: -0.118
- glycan array binding signal (z-score) [18]: -0.242
- glycan array binding signal (z-score) (Fuc(a1-4)GlcNAc): -0.191
- glycan array binding signal (z-score) (Fuc(b1-3)GlcNAc): -0.411
- glycan array binding signal (z-score) (Gal(a1-2)Gal): -0.098
- glycan array binding signal (z-score) (Gal(a1-3)Gal): -0.09
- glycan array binding signal (z-score) (Gal(a1-3)Gal(b1-3)GlcNAc): 0.15
- glycan array binding signal (z-score) [19]: -0.129
- glycan array binding signal (z-score) [20]: 0.486
- glycan array binding signal (z-score) [21]: -0.118
- glycan array binding signal (z-score) [22]: 0.024
- glycan array binding signal (z-score) [23]: -0.502
- glycan array binding signal (z-score) (Gal(a1-3)Gal(b1-4)Glc): -0.045
- glycan array binding signal (z-score) (Gal(a1-3)Gal(b1-4)GlcNAc): -0.331
- glycan array binding signal (z-score) [24]: -0.252
- glycan array binding signal (z-score) [25]: -0.202
- glycan array binding signal (z-score) [26]: -0.056
- glycan array binding signal (z-score) [27]: 0.003
- glycan array binding signal (z-score) [28]: 0.021
- glycan array binding signal (z-score) [29]: -0.045
